Biological target: human CD40 (human, UniProt P25942 21-277)
Assay: cell-based or functional assay

UniProt P25942, sequence (P25942 21-277 limits assumed): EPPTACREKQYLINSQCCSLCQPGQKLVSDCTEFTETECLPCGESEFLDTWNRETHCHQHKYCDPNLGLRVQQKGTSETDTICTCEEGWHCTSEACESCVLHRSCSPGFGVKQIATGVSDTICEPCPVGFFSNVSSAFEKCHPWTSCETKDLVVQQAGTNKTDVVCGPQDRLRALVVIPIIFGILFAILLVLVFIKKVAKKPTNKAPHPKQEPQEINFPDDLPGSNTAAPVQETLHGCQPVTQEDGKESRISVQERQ

Binder	CHO-hCD40L-driven DC Activation IL-6 EC50 [nM]	CHO-hCD40L-driven DC Activation IL-12 EC50 [nM]	CHO-hCD40L-driven DC Activation TNF EC50 [nM]	CHO-hCD40L-driven Human B Cell Proliferation EC50 [nM]	T-B cell MLR EC50 [nM]	hIZCD40L-driven Human B Cell Proliferation EC50 [nM]
BMS3h-56-269-IgG4 Fc fusion polypeptide (Fc fusion) EVQLLESGGGLVQPGGSLRLSCAASGFTFRDYEMWWVRQAPGKGLERVSAINPQGTRTYYADSVKGRFTISRDNSKNTLYLQMNSLRAEDTAVYYCAKLPFRFSDRGQGTLVTVSSAST[human IgG4 Fc with S228P (EU numbers) not given here]	0.09	0.092	0.16	0.27	0.52	0.028
BMS3h-56-269-IgG1*Fc fusion polypeptide (Fc fusion) EVQLLESGGGLVQPGGSLRLSCAASGFTFRDYEMWWVRQAPGKGLERVSAINPQGTRTYYADSVKGRFTISRDNSKNTLYLQMNSLRAEDTAVYYCAKLPFRFSDRGQGTLVTVSSAST[human IgG1 Fc with changes not given here]	0.15	0.14	0.27	0.25	0.53	0.025

From patent US20200199244A1 (published 2020)
